Experimental data reported in the CheMixHub viscosity set.
This continues a long series; more values of the same kind are listed elsewhere.

Legend:
[1] = xn = mol fraction of the nth substance listed

CCCCn1cc[n+](C)c1.CCOS(=O)(=O)[O-]
Conditions | viscosity [mPa·s]
298.15 K, 100 kPa | 255.2

CCn1cc[n+](C)c1.F[B-](F)(F)F
Conditions | viscosity [mPa·s]
293.15 K, 100 kPa | 34.6
298.15 K, 101 kPa | 35.8
299.15 K, 101 kPa | 34.52
301.15 K, 101 kPa | 32.15
302.15 K, 101 kPa | 31.06
303.15 K, 100 kPa | 24.2
304.15 K, 101 kPa | 29.01
305.15 K, 101 kPa | 28.13
307.15 K, 101 kPa | 26.38
308.15 K, 101 kPa | 25.54
313.15 K, 100 kPa | 17.8
323.15 K, 100 kPa | 13.5

CCNc1ccccc1 + COC(C)(C)C
viscosity [mPa·s], [1], 101 kPa
Conditions | 318.15 K | 323.15 K
x1 = 0.0583 | – | 0.302
x1 = 0.1047 | – | 0.323
x1 = 0.1493 | – | 0.344
x1 = 0.2021 | – | 0.371
x1 = 0.2544 | – | 0.4
x1 = 0.3064 | 0.465 | 0.43
x1 = 0.3508 | 0.496 | 0.458
x1 = 0.4031 | 0.535 | 0.494
x1 = 0.45 | 0.572 | 0.527
x1 = 0.5021 | 0.617 | 0.568
x1 = 0.5506 | 0.662 | 0.609
x1 = 0.6036 | 0.715 | 0.656
x1 = 0.6519 | 0.767 | 0.703
x1 = 0.701 | 0.824 | 0.755
x1 = 0.7521 | 0.888 | 0.812
x1 = 0.7985 | 0.95 | 0.868
x1 = 0.8501 | 1.023 | 0.933
x1 = 0.9006 | 1.1 | 1.002
x1 = 0.949 | 1.178 | 1.071

CC(O)CN(C)C (stereo not drawn) + O
[1], 323.15 K, 101 kPa
Conditions | viscosity [mPa·s]
x1 = 0.4013 | 2.496
x1 = 0.4578 | 2.245
x1 = 0.5049 | 2.045
x1 = 0.6009 | 1.683
x1 = 0.7054 | 1.372
x1 = 0.7955 | 1.158
x1 = 0.8905 | 0.983
x1 = 0.9564 | 0.883

O=C(CO)[C@@H](O)[C@H](O)[C@H](O)CO + O
[1], 100 kPa, x1 = 0.0009
Conditions | viscosity [mPa·s]
298.15 K | 0.9294
308.15 K | 0.7522
313.15 K | 0.6838
318.15 K | 0.6246
